T1: CSL627 (recombinant Factor VIII, rVIII-SingleChain) (human, UniProt P00451 20-2351)
T1 construct: the tie is indirect; also called FVIII; CSL627-rVIII-SingleChain
T1 sequence: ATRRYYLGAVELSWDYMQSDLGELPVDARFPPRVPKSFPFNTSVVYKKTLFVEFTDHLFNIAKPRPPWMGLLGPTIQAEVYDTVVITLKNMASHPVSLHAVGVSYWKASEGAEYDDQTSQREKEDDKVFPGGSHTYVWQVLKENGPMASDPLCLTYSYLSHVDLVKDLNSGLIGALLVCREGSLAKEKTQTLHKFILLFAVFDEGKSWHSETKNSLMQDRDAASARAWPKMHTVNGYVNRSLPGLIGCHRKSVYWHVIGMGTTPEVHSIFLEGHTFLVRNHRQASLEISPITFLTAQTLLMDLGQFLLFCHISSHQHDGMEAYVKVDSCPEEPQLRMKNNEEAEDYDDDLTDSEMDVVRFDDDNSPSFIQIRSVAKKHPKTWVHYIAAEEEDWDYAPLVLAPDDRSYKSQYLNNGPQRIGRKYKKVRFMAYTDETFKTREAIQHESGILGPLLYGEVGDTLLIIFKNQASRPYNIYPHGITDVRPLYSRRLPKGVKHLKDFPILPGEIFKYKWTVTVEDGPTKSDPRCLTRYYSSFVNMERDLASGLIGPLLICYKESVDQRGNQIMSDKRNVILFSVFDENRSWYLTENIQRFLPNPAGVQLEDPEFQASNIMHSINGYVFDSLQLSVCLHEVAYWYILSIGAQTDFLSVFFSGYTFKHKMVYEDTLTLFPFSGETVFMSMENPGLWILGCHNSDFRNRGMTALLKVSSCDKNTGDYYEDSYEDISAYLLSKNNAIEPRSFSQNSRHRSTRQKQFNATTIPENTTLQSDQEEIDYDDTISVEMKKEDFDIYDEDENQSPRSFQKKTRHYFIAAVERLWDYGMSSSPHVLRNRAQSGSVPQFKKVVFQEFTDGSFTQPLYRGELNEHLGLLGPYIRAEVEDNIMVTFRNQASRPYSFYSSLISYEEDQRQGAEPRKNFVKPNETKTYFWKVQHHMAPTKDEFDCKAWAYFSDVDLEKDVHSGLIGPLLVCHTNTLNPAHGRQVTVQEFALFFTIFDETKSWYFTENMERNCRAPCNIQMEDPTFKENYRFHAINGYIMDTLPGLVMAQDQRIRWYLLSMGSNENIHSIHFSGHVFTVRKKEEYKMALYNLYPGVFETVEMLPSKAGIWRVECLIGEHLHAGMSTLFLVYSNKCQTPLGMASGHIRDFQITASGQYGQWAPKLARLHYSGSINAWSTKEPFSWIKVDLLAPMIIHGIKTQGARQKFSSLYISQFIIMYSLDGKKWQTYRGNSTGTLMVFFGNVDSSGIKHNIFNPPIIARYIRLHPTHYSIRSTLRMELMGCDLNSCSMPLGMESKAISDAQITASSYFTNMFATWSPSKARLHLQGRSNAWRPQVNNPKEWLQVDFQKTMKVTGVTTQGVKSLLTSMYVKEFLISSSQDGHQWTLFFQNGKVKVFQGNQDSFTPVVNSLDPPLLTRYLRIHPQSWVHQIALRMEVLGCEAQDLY


Columns and labels:
[1] = molecular target: T1, CSL627 (recombinant Factor VIII, …); experiment: SPR screen at pH 7; D′D3-HSA from culture supernatant captured on anti-HSA antibody, Factor VIII injected
Procedure: (§1) Mouse anti-HSA antibody was immobilized on a CMS chip using standard NHS/EDC coupling chemistry. Typically, the immobilization level was about 14,000 RU. Each mutant of vWF-HSA was captured on a single spot in each flow cell for 2 minutes at various concentrations ranging from 0.1-1 μg/ml. Capture levels ranged from 100-200 RU. An adjacent spot in which anti-HSA was immobilized, but no vWF-HSA captured was used as a reference. Capture was performed every cycle, before FVIII binding analysis.
An initial experiment was set up at neutral pH to screen a series of mutations for the top affinity and off rate improved vWF-HSA mutants. […]
Throughout all experiments buffer blanks were also injected over all captured proteins. The association and dissociation of Factor VIII was monitored for 3 minutes respectively during the “screening” experiment. The association of CSL627 was monitored for 5 minutes and dissociation was monitored for 20 and 60 minutes during the “detailed kinetic analysis” experiments at neutral pH. At pH 5.5 the association and dissociation of Factor VIII was monitored for various time frames that best suited the interaction.

[2] = molecular target: T1, CSL627 (recombinant Factor VIII, …); experiment: SPR detailed kinetics at pH 5.5, 37 C; purified dimer from the single D1D2D′D3-HSA construct captured on anti-HSA antibody, CSL627 injected; 1:1 fit with mass transport
Procedure: as §1, with “Each Dimer” for “Each”, “D′D3-HSA” for “vWF-HSA”, “0.2-0.7” for “0.1-1”, “50-250” for “100-200”, “FVIII (CSL627)” for “FVIII”
(§2) CSL627 was injected at random and in duplicate over all spots in all flow cells. […] The association was monitored for 5 minutes, while the dissociation was monitored for 20 minutes as well as for 1 hour at the 1 nM concentration. Buffer blanks were also injected. At pH5.5 CSL627 was injected at various concentrations and time frames that best suited the interaction taking place.
(§3) After the dissociation period the surface was regenerated with a 45 second injection of 25 mM Glycine pH2.6. Running buffer throughout was 10 mM HEPES, 150 mM NaCl, 10 mM Na Citrate, 2.5 mM CaCl2, 0.1% BSA, pH7.3 and pH5.5, while the flow rate was 30 μl/min. Each interaction was measured 4 times (n=4) at 37° C.

[3] = molecular target: T1, CSL627 (recombinant Factor VIII, …); experiment: SPR detailed kinetics at pH 7, 37 C; purified dimer from the single D1D2D′D3-HSA construct captured on anti-HSA antibody, CSL627 injected; 1:1 fit with mass transport
Procedure: as §1, with “Each Dimer” for “Each”, “D′D3-HSA” for “vWF-HSA”, “0.2-0.7” for “0.1-1”, “50-250” for “100-200”, “FVIII (CSL627)” for “FVIII”
as §2, §3

Kd [1] [nM]	koff [1] [s⁻¹]	kon [1] [M⁻¹ s⁻¹]	Kd [2] [nM]	koff [2] [s⁻¹]	kon [2] [M⁻¹ s⁻¹]	Kd [3] [nM]	koff [3] [s⁻¹]	kon [3] [M⁻¹ s⁻¹]	Binder
0.149	0.000632	4.26e+06	–	–	–	–	–	–	vWF D′D3-HSA dimer V805A, Q1158L (other, Albumin fusion, dimer; tested from culture supernatant; not shown: glycine serine linker between VWF part and albumin) SLSCRPPMVKLVCPADNLRAEGLECTKTCQNYDLECMSMGCASGCLCPPGMVRHENRCVALERCPCFHQGKEYAPGETVKIGCNTCVCRDRKWNCTDHVCDATCSTIGMAHYLTFDGLKYLFPGECQYVLVQDYCGSNPGTFRILVGNKGCSHPSVKCKKRVTILVEGGEIELFDGEVNVKRPMKDETHFEVVESGRYIILLLGKALSVVWDRHLSISVVLKQTYQEKVCGLCGNFDGIQNNDLTSSNLQVEEDPVDFGNSWKVSSQCADTRKVPLDSSPATCHNNIMKQTMVDSSCRILTSDVFQDCNKLVDPEPYLDVCIYDTCSCESIGDCACFCDTIAAYAHVCAQHGKVVTWRTATLCPQSCEERNLRENGYECEWRYNSCAPACQVTCLHPEPLACPVQCVEGCHAHCPPGKILDELLQTCVDPEDCPVCEVAGRRFASGKKVTLNPSDPEHCQICHCDVVNLTCEACQEPGG[omitted - about 600 residues]
–	–	–	82.4	0.0744	908000	0.019	0.000359	1.89e+07	vWF D′D3-HSA dimer S764G, V1083A (other, not shown: glycine serine linker between VWF part and albumin) GLSCRPPMVKLVCPADNLRAEGLECTKTCQNYDLECMSMGCVSGCLCPPGMVRHENRCVALERCPCFHQGKEYAPGETVKIGCNTCVCRDRKWNCTDHVCDATCSTIGMAHYLTFDGLKYLFPGECQYVLVQDYCGSNPGTFRILVGNKGCSHPSVKCKKRVTILVEGGEIELFDGEVNVKRPMKDETHFEVVESGRYIILLLGKALSVVWDRHLSISVVLKQTYQEKVCGLCGNFDGIQNNDLTSSNLQVEEDPVDFGNSWKVSSQCADTRKVPLDSSPATCHNNIMKQTMVDSSCRILTSDVFQDCNKLVDPEPYLDACIYDTCSCESIGDCACFCDTIAAYAHVCAQHGKVVTWRTATLCPQSCEERNLRENGYECEWRYNSCAPACQVTCQHPEPLACPVQCVEGCHAHCPPGKILDELLQTCVDPEDCPVCEVAGRRFASGKKVTLNPSDPEHCQICHCDVVNLTCEACQEPGG[omitted - about 600 residues]

Second part, the binder before the results:

Binder	Kd [1] [nM]	koff [1] [s⁻¹]	kon [1] [M⁻¹ s⁻¹]	Kd [2] [nM]	koff [2] [s⁻¹]	kon [2] [M⁻¹ s⁻¹]	Kd [3] [nM]	koff [3] [s⁻¹]	kon [3] [M⁻¹ s⁻¹]
vWF D′D3-HSA dimer K912E, T1088S (other, Albumin fusion, dimer; tested from culture supernatant; not shown: glycine serine linker between VWF part and albumin) SLSCRPPMVKLVCPADNLRAEGLECTKTCQNYDLECMSMGCVSGCLCPPGMVRHENRCVALERCPCFHQGKEYAPGETVKIGCNTCVCRDRKWNCTDHVCDATCSTIGMAHYLTFDGLKYLFPGECQYVLVQDYCGSNPGTFRILVGNEGCSHPSVKCKKRVTILVEGGEIELFDGEVNVKRPMKDETHFEVVESGRYIILLLGKALSVVWDRHLSISVVLKQTYQEKVCGLCGNFDGIQNNDLTSSNLQVEEDPVDFGNSWKVSSQCADTRKVPLDSSPATCHNNIMKQTMVDSSCRILTSDVFQDCNKLVDPEPYLDVCIYDSCSCESIGDCACFCDTIAAYAHVCAQHGKVVTWRTATLCPQSCEERNLRENGYECEWRYNSCAPACQVTCQHPEPLACPVQCVEGCHAHCPPGKILDELLQTCVDPEDCPVCEVAGRRFASGKKVTLNPSDPEHCQICHCDVVNLTCEACQEPGG[omitted - about 600 residues]	0.155	0.0008	5.17e+06	–	–	–	–	–	–
vWF D′D3-HSA dimer N1011S, V1083A, K1181E (other, Albumin fusion, dimer; tested from culture supernatant; not shown: glycine serine linker between VWF part and albumin) SLSCRPPMVKLVCPADNLRAEGLECTKTCQNYDLECMSMGCVSGCLCPPGMVRHENRCVALERCPCFHQGKEYAPGETVKIGCNTCVCRDRKWNCTDHVCDATCSTIGMAHYLTFDGLKYLFPGECQYVLVQDYCGSNPGTFRILVGNKGCSHPSVKCKKRVTILVEGGEIELFDGEVNVKRPMKDETHFEVVESGRYIILLLGKALSVVWDRHLSISVVLKQTYQEKVCGLCGNFDGIQNNDLTSSSLQVEEDPVDFGNSWKVSSQCADTRKVPLDSSPATCHNNIMKQTMVDSSCRILTSDVFQDCNKLVDPEPYLDACIYDTCSCESIGDCACFCDTIAAYAHVCAQHGKVVTWRTATLCPQSCEERNLRENGYECEWRYNSCAPACQVTCQHPEPLACPVQCVEGCHAHCPPGEILDELLQTCVDPEDCPVCEVAGRRFASGKKVTLNPSDPEHCQICHCDVVNLTCEACQEPGG[omitted - about 600 residues]	0.081	0.00043	5.31e+06	–	–	–	–	–	–
vWF D′D3-HSA dimer S764E, V1083A (other, not shown: glycine serine linker between VWF part and albumin) ELSCRPPMVKLVCPADNLRAEGLECTKTCQNYDLECMSMGCVSGCLCPPGMVRHENRCVALERCPCFHQGKEYAPGETVKIGCNTCVCRDRKWNCTDHVCDATCSTIGMAHYLTFDGLKYLFPGECQYVLVQDYCGSNPGTFRILVGNKGCSHPSVKCKKRVTILVEGGEIELFDGEVNVKRPMKDETHFEVVESGRYIILLLGKALSVVWDRHLSISVVLKQTYQEKVCGLCGNFDGIQNNDLTSSNLQVEEDPVDFGNSWKVSSQCADTRKVPLDSSPATCHNNIMKQTMVDSSCRILTSDVFQDCNKLVDPEPYLDACIYDTCSCESIGDCACFCDTIAAYAHVCAQHGKVVTWRTATLCPQSCEERNLRENGYECEWRYNSCAPACQVTCQHPEPLACPVQCVEGCHAHCPPGKILDELLQTCVDPEDCPVCEVAGRRFASGKKVTLNPSDPEHCQICHCDVVNLTCEACQEPGG[omitted - about 600 residues]	–	–	–	8.32	0.0207	2.5e+06	0.0116	0.000207	1.77e+07
